± gives the standard deviation of the averaged measurements. Whole data set: some 33,000 sequences, median “E-score (dimensionless, -0.5 to 0.5)” near -0.046, cut for the highest 2% near 0.36. The list shows a part of the results.
tested on: T1, SpTbr T-box DNA-binding domain (GST fusion); test: PBM E-score of 8-mer (E-score (dimensionless, -0.5 to 0.5)); Tbr is Tbrain of the sea star Patiria miniata (Pm) or the sea urchin Strongylocentrotus purpuratus (Sp); higher = stronger binding preference; most listed sequences are background and not binding sites; conditions: the construct has about 5 more residues each side
T1 sequence: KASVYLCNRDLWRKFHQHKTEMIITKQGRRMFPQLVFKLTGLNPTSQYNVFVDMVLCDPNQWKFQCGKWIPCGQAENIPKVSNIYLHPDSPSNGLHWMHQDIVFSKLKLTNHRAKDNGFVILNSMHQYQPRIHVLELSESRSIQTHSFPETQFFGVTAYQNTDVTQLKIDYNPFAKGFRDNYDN
Method in brief: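 GST-fused Tbr T-box DNA-binding domains (the whole T-box plus about five flanking residues) were expressed in BL21 E. coli at 20 °C and purified by glutathione affinity chromatography. Universal Agilent oligonucleotide arrays were made double-stranded by primer extension, incubated with 200 nM protein in PBS (pH 7.5), then scanned and quantified. Every ungapped 8-mer was scored from probe intensities. The Universal PBM Analysis Suite gave each word an enrichment E-score, averaged over duplicate arrays.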

Sequence | PBM E-score of 8-mer
AAGTTTCA | -0.0887 ± 0.0065
CGCACACA | 0.285 ± 0.0053
ACTATATA | 0.0257 ± 0.031
CCCGACCC | -0.272 ± 0.033
ACCGAGTC | -0.115 ± 0.05
ACCGACAG | 0.124 ± 0.034
CTGATAAA | -0.156 ± 0.15
AGGCCCAG | -0.26 ± 0.049
GATAGCCA | -0.19 ± 0.028
CATGCTAC | -0.0996 ± 0.03
CCGTGCTC | -0.2658 ± 0.0026
CCTCGTCC | -0.186 ± 0.05
CCTCTGAA | -0.242 ± 0.01
GGTATGAC | -0.0529 ± 0.084
ATATGTTC | -0.00847 ± 0.0029
TTACAAAA | -0.255 ± 0.0077
ATAATCAC | 0.111 ± 0.074
GGCCCAGA | -0.2892 ± 0.0023
AAGCCGAT | -0.0775 ± 0.016
AGAAGATC | -0.0549 ± 0.0067
CCCCGGGA | -0.0544 ± 0.0041
ACTACCCA | -0.0986 ± 0.043

Sequence | PBM E-score of 8-mer
CCTGCGGC | -0.265 ± 0.085
AAACCACC | -0.108 ± 0.004
CCGAGCTC | -0.276 ± 0.049
AGCAACAT | -0.00653 ± 0.059
CCAGTGCA | -0.196 ± 0.081
AGGTCATA | -0.0955 ± 0.14
GGACTAAC | -0.113 ± 0.02
CAGTCGAG | -0.0184 ± 0.03
ACATAAAT | 0.0269 ± 0.015
AAAGAATG | -0.101 ± 0.13
GACCTGGA | -0.126 ± 0.0018
AACCTCCT | 0.00779 ± 0.035
GCCCCACC | -0.0262 ± 0.0077
AGTGGCCC | -0.195 ± 0.041
CAATCCGA | -0.103 ± 0.05
AGCCTAAC | 0.0322 ± 0.051
ACCAAAAC | -0.0482 ± 0.03
ACCGGGAG | 0.0271 ± 0.021
ATGTCTCC | -0.104 ± 0.016
TAACACTA | 0.373 ± 0.042
GGACCGGA | -0.0403 ± 0.038
AGGACCGG | -0.327 ± 0.032

Sequence | PBM E-score of 8-mer
GAATATCA | 0.00497 ± 0.031
CGTGAAGA | 0.277 ± 0.024
CTGGACGC | -0.142 ± 0.0062
GGCAGCCA | 0.0468 ± 0.083
CCTTCTTA | 0.0334 ± 0.047
CAGATCCC | -0.0125 ± 0.036
CACAACCG | 0.0996 ± 0.024
ATAAGATC | -0.294 ± 0.079
ATGTGGAC | -0.0585 ± 0.08
CTACTTGA | 0.0916 ± 0.062
GCTCTAGA | -0.219 ± 0.035
ATGGACGA | -0.115 ± 0.045
TATTCCAA | -0.156 ± 0.056
TCGACCAA | -0.138 ± 0.024
GTGGCGTA | 0.18 ± 0.042
GCGTAGAC | -0.0968 ± 0.063
CTGTTACC | 0.1316 ± 0.001
ACCGGCGC | 0.0708 ± 0.088
ATGTTGTG | 0.19 ± 0.003
CATTCTTA | -0.21 ± 0.037
AGGAACTG | -0.0528 ± 0.009
ACCGCCAA | 0.135 ± 0.045

Sequence | PBM E-score of 8-mer
CATGCTGG | -0.2357 ± 0.0008
CTCTGATC | -0.295 ± 0.028
ATCCAAGA | -0.146 ± 0.013
CGCCAAAA | 0.0918 ± 0.039
ACTTCGAC | 0.189 ± 0.025
GACGAGCA | -0.152 ± 0.046
ACGACAGA | -0.0974 ± 0.035
GTGGAATA | -0.0578 ± 0.064
ACTCCGCG | -0.0356 ± 0.025
TGAGATAA | 0.0687 ± 0.09
AACTGCCA | 0.143 ± 0.063
AGCGCATA | -0.00709 ± 0.06
CGCTCAGA | -0.0699 ± 0.017
CCTTCGGA | -0.0212 ± 0.0018
AGCATACG | 0.00432 ± 0.048
ATCCCACG | 0.0622 ± 0.046
CTTAGGTC | -0.167 ± 0.044
CCTATAGC | -0.123 ± 0.051
ACGTCATA | -0.0433 ± 0.0045
CTAATATC | -0.136 ± 0.0072
GCCAGATA | -0.113 ± 0.047
ACCATCAA | -0.0776 ± 0.011

Sequence | PBM E-score of 8-mer
CCGTCAGC | 0.147 ± 0.028
CTCACTAA | 0.125 ± 0.0095
CGACTTTC | 0.157 ± 0.043
GCACAGTA | -0.0331 ± 0.042
CATGGGAC | -0.242 ± 0.075
GCAGGGCC | -0.226 ± 0.13
AACGGTCA | 0.174 ± 0.042
AGTCCTTG | -0.0449 ± 0.074
GATGGCAA | 0.06 ± 0.098
GGACGGAC | -0.176 ± 0.0025
TAAAGCTA | -0.171 ± 0.036
CGCCGCTA | 0.0573 ± 0.02
AGTGCCCA | -0.116 ± 0.045
CGCAAGAA | 0.0773 ± 0.0057
CCGAGACG | -0.121 ± 0.015
AACTGCCG | -0.0509 ± 0.053
GCAAGAAA | -0.0699 ± 0.06
ATCGTATC | -0.0937 ± 0.063
AATACCGG | -0.22 ± 0.049
ATCGTCAG | -0.000445 ± 0.032
CTACTGCA | -0.122 ± 0.0076
ATCACTGA | 0.052 ± 0.049

Reference: the supplement of paper PMC4166925
